# Reference: the supplement of paper PMC8728848
# This is one part of the list.
# B1: SP15308A-bot-339-19-339 (Bacteroides ovatus) (protein)
# chain: ACNNEWEDEQYEQYISFKSPIPAGGEGVTDIYVRYKEDGKVTYRLPIVVSGSTTNTLDREVHIAVDKDTLETLNIERFSIHRPGLWYTALEEDKYDFPKTVHISAGSSVEQLNIDFNLQGIDMLEKWVLPLTIVDDPSYNYKSHPRKNYAKALLRVIPFNNYSGSYTSSAMKVYTYINGKPDTNARTANKRTGYVINDNTVFFYAGLISEDLDKEVREKYKINVHFNEDGTLHMEQGDPTNKMKFELIGTPTYSKTSVMDATRPYLERRYVQIMFEYDFEDFSYGGNGVDVIPIKYKVEGSMTLQRNINTQIPDEDQQIEW
# How the values were obtained:
# Assay in all cases: glycan array binding signal (z-score within array); higher = stronger binding
# Conditions in all cases: glycan notation: IUPAC condensed, linker removed
# [1] = molecular target: Neu5Ac(a2-6)Gal(b1-4)GlcNAc(b1-6)GalNAc
# Method in brief: (§1)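 The binding signal is a Z-score computed within each array. Data were drawn from 3228 arrays in the Consortium for Functional Glycomics database, restricted to those with a known protein sequence. Scores were averaged over arrays of the same protein sequence at different concentrations or buffers, and over linkers, and negative values can be taken as non-binding.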
# [2] = molecular target: Neu5Ac(a2-6)Gal(b1-4)GlcNAc(b1-6)[Gal(b1-3)GlcNAc(b1-3)]Gal(b1-4)Glc
# Method in brief: as §1
# [3] = molecular target: Neu5Ac(a2-6)Gal(b1-4)GlcNAc(b1-6)[Gal(b1-3)]GalNAc
# Method in brief: as §1
# [4] = molecular target: Neu5Ac(a2-6)Gal(b1-4)GlcNAc6S
# Method in brief: as §1
# Neu5Ac(a2-6)GalNAc = molecular target: Neu5Ac(a2-6)GalNAc
# Method in brief: as §1
# [5] = molecular target: Neu5Ac(a2-6)GalNAc(b1-4)GlcNAc
# Method in brief: as §1
# [6] = molecular target: Neu5Ac(a2-6)GalNAc(b1-4)GlcNAc6S
# Method in brief: as §1
# [7] = molecular target: Neu5Ac(a2-6)GlcNAc(b1-4)GlcNAc
# Method in brief: as §1
# [8] = molecular target: Neu5Ac(a2-6)GlcNAc(b1-4)GlcNAc(b1-4)GlcNAc
# Method in brief: as §1
# Neu5Ac(a2-8)Neu5Ac = molecular target: Neu5Ac(a2-8)Neu5Ac
# Method in brief: as §1
# [9] = molecular target: Neu5Ac(a2-8)Neu5Ac(a2-3)Gal(b1-3)GalNAc(b1-4)[Neu5Ac(a2-3)]Gal(b1-4)Glc
# Method in brief: as §1
# [10] = molecular target: Neu5Ac(a2-8)Neu5Ac(a2-3)Gal(b1-3)GalNAc(b1-4)[Neu5Ac(a2-8)Neu5Ac(a2-3)]Gal(b1-4)Glc
# Method in brief: as §1
# [11] = molecular target: Neu5Ac(a2-8)Neu5Ac(a2-3)Gal(b1-4)Glc
# Method in brief: as §1
# [12] = molecular target: Neu5Ac(a2-8)Neu5Ac(a2-3)Gal(b1-4)GlcNAc
# Method in brief: as §1
# [13] = molecular target: Neu5Ac(a2-8)Neu5Ac(a2-3)[Gal(b1-3)GalNAc(b1-4)]Gal(b1-4)Glc
# Method in brief: as §1
# [14] = molecular target: Neu5Ac(a2-8)Neu5Ac(a2-3)[GalNAc(b1-4)]Gal(b1-4)Glc
# Method in brief: as §1
# [15] = molecular target: Neu5Ac(a2-8)Neu5Ac(a2-8)Neu5Ac
# Method in brief: as §1
# [16] = molecular target: Neu5Ac(a2-8)Neu5Ac(a2-8)Neu5Ac(a2-3)Gal(b1-4)Glc
# Method in brief: as §1
# [17] = molecular target: Neu5Ac(a2-8)Neu5Ac(a2-8)Neu5Ac(a2-3)[Gal(b1-3)GalNAc(b1-4)]Gal(b1-4)Glc
# Method in brief: as §1
# [18] = molecular target: Neu5Ac(a2-8)Neu5Ac(a2-8)Neu5Ac(a2-3)[GalNAc(b1-4)]Gal(b1-4)Glc
# Method in brief: as §1
# [19] = molecular target: Neu5Ac(a2-8)Neu5Ac(a2-8)Neu5Ac(a2-8)Neu5Ac(a2-3)[GalNAc(b1-4)]Gal(b1-4)Glc
# Method in brief: as §1
# [20] = molecular target: Neu5Ac(a2-8)Neu5Gc(a2-3)Gal(b1-4)GlcNAc
# Method in brief: as §1
# [21] = molecular target: Neu5Ac(b2-6)Gal(b1-4)GlcNAc
# Method in brief: as §1
# Neu5Ac(b2-6)GalNAc = molecular target: Neu5Ac(b2-6)GalNAc
# Method in brief: as §1
# [22] = molecular target: Neu5Ac9Ac(a2-3)Gal(b1-3)GlcNAc
# Method in brief: as §1
# [23] = molecular target: Neu5Ac9Ac(a2-3)Gal(b1-4)GlcNAc
# Method in brief: as §1
# [24] = molecular target: Neu5Ac9Ac(a2-6)Gal(b1-4)GlcNAc
# Method in brief: as §1
# [25] = molecular target: Neu5Gc(a2-3)Gal(b1-3)GlcNAc
# Method in brief: as §1
# [26] = molecular target: Neu5Gc(a2-3)Gal(b1-3)[Fuc(a1-4)]GlcNAc
# Method in brief: as §1
# Neu5Gc(a2-3)Gal(b1-4)Glc = molecular target: Neu5Gc(a2-3)Gal(b1-4)Glc
# Method in brief: as §1
# [27] = molecular target: Neu5Gc(a2-3)Gal(b1-4)GlcNAc
# Method in brief: as §1
# [28] = molecular target: Neu5Gc(a2-3)Gal(b1-4)GlcNAc(b1-3)Gal(b1-4)GlcNAc(b1-2)Man(a1-3)[Neu5Gc(a2-3)Gal(b1-4)GlcNAc(b1-3)Gal(b1-4)GlcNAc(b1-2)Man(a1-6)]Man(b1-4)GlcNAc(b1-4)GlcNAc
# Method in brief: as §1
# [29] = molecular target: Neu5Gc(a2-3)Gal(b1-4)[Fuc(a1-3)]GlcNAc
# Method in brief: as §1
# [30] = molecular target: Neu5Gc(a2-6)Gal(b1-4)GlcNAc
# Method in brief: as §1
# Neu5Gc(a2-6)GalNAc = molecular target: Neu5Gc(a2-6)GalNAc
# Method in brief: as §1
# [31] = molecular target: Neu5Gc(a2-8)Neu5Ac(a2-3)Gal(b1-4)GlcNAc
# Method in brief: as §1
# [32] = molecular target: Neu5Gc(a2-8)Neu5Gc(a2-3)Gal(b1-4)GlcNAc
# Method in brief: as §1
# [33] = molecular target: Neu5Gc(a2-8)Neu5Gc(a2-3)Gal(b1-4)GlcNAc(b1-3)Gal(b1-4)GlcNAc
# Method in brief: as §1
binder,measurement,setting,value
B1,glycan array binding signal (z-score),[1],-0.237
same,glycan array binding signal (z-score),[2],-0.565
same,glycan array binding signal (z-score),[3],-0.424
same,glycan array binding signal (z-score),[4],-0.194
same,glycan array binding signal (z-score),Neu5Ac(a2-6)GalNAc,-0.36
same,glycan array binding signal (z-score),[5],-0.736
same,glycan array binding signal (z-score),[6],-0.452
same,glycan array binding signal (z-score),[7],-0.508
same,glycan array binding signal (z-score),[8],-0.453
same,glycan array binding signal (z-score),Neu5Ac(a2-8)Neu5Ac,-0.247
same,glycan array binding signal (z-score),[9],-0.497
same,glycan array binding signal (z-score),[10],0.03
same,glycan array binding signal (z-score),[11],-0.384
same,glycan array binding signal (z-score),[12],-0.345
same,glycan array binding signal (z-score),[13],-0.083
same,glycan array binding signal (z-score),[14],-0.466
same,glycan array binding signal (z-score),[15],-0.123
same,glycan array binding signal (z-score),[16],-0.509
same,glycan array binding signal (z-score),[17],-0.048
same,glycan array binding signal (z-score),[18],-0.3
same,glycan array binding signal (z-score),[19],-0.366
same,glycan array binding signal (z-score),[20],-0.21
same,glycan array binding signal (z-score),[21],-0.305
same,glycan array binding signal (z-score),Neu5Ac(b2-6)GalNAc,-0.463
same,glycan array binding signal (z-score),[22],-0.51
same,glycan array binding signal (z-score),[23],-0.391
same,glycan array binding signal (z-score),[24],-0.311
same,glycan array binding signal (z-score),[25],-0.106
same,glycan array binding signal (z-score),[26],-0.412
same,glycan array binding signal (z-score),Neu5Gc(a2-3)Gal(b1-4)Glc,-0.1
same,glycan array binding signal (z-score),[27],-0.188
same,glycan array binding signal (z-score),[28],0.181
same,glycan array binding signal (z-score),[29],0.629
same,glycan array binding signal (z-score),[30],-0.371
same,glycan array binding signal (z-score),Neu5Gc(a2-6)GalNAc,-0.285
same,glycan array binding signal (z-score),[31],0.014
same,glycan array binding signal (z-score),[32],-0.427
same,glycan array binding signal (z-score),[33],-0.077
